Laboratory results reported in paper PMC4336329 (PLoS ONE, 2015).
The whole screen tested about 310,000 compounds, of which about 14,000 (4.5%) showed an effect of 50% or more. The effect is printed as a negative number. This is one part of the list.

What follows are molecules tested against human ether-à-go-go-related gene (hERG) potassium channel (human, UniProt Q12809) (assay: primary screen, population patch clamp on CHO cells stably expressing hERG).
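Also: peak tail current of the secondary pulse compared with the same well before compound.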

human ether-à-go-go-related gene (hERG) potassium channel, sequence (Q12809 whole entry, looked up): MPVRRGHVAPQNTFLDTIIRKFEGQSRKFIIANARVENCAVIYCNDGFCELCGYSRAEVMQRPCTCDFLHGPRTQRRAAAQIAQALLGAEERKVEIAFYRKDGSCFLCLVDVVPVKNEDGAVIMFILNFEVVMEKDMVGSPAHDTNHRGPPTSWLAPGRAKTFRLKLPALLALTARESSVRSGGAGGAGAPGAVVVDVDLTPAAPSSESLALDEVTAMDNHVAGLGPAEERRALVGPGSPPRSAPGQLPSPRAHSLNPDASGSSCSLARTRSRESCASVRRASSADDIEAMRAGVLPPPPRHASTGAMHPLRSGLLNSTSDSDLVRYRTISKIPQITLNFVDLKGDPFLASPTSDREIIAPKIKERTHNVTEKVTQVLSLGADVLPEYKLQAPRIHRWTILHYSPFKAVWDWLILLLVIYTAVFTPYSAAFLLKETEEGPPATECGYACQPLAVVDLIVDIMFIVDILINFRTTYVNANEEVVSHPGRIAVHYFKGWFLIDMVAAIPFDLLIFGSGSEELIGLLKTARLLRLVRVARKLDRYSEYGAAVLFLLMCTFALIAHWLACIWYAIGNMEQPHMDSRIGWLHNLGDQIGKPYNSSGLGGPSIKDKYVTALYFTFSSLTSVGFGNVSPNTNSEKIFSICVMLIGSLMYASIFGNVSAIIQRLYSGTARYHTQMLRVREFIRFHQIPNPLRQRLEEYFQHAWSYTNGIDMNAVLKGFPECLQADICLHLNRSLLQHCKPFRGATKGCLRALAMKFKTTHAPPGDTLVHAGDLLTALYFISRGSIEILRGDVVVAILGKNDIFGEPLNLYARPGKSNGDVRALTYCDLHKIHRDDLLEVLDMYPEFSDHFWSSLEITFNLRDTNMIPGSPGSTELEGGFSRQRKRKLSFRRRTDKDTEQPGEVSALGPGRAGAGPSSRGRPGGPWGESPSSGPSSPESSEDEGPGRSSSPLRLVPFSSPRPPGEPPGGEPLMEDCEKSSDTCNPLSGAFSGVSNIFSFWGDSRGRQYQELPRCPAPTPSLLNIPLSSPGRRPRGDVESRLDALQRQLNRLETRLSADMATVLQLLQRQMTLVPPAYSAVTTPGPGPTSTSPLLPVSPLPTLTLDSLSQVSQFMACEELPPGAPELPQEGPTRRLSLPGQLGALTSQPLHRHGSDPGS

Structure (SMILES)	hERG current change (%, negative = inhibition) at 10uM
C[N+](C)(C)CCCC(=O)c1ccc2c(c1)OCO2.[Cl-]	10.4%
COc1cccc(NC(C)(C)c2nnnn2-c2c(C)cccc2C)c1	-63.4%
CCOc1ccc(-c2noc(CCCC(=O)NCC3CCCO3)n2)cc1OC (centres unmarked)	6.17%
O=C(CSc1nccc(-c2cccs2)n1)Nc1cccc(Cl)c1	-1.02%
C#CCn1c(=NC(=O)c2cc(-c3cccs3)nc3ccccc23)sc2cc(S(N)(=O)=O)ccc21	2.08%
CCCCN(C(=O)CSc1nnc(-c2ccc(Cl)cc2)o1)c1c(N)n(CC(C)C)c(=O)[nH]c1=O	2.52%
CCCn1c(C)cc(C(=O)COC(=O)c2cc(S(=O)(=O)NCC(C)C)c(Cl)cc2Cl)c1C	1.05%
Cc1nc(CCNC(=O)COc2ccccc2)cs1	17.2%
CCn1c(=O)cc(SCC(=O)N2CCN(Cc3ccc4c(c3)OCO4)CC2)c2ccccc21	-24.8%
CSCCC(NC(=O)c1cccc(C)c1)C(=O)Nc1sccc1C(N)=O (centres unmarked)	9.29%
CCCc1cc(C(F)(F)F)c(C#N)c(=O)[nH]1	2.55%
Cc1ccc(N/C(SCc2ccccc2C)=C(/C#N)C(=O)NCc2ccco2)cc1C	10.2%
CCc1nc(SCC(=O)O)c(C#N)cc1C	5.22%
CCOC(=O)c1cc(-c2ccccc2)nn1-c1ccccn1	-11.1%
CC(C(=O)OCC(=O)c1c(N)n(C)c(=O)n(C)c1=O)N1C(=O)c2ccccc2C1=O (centres unmarked)	-15.2%
CCOC(=O)C1CCCCN1Cc1cc(Cl)ccc1O (centres unmarked)	8.23%
CCOC(=O)Cc1csc(NC(=O)Nc2ccccc2)n1	2.25%
O=C1CC2CS(=O)(=O)CC2N1c1ccc(Cl)cc1Cl (centres unmarked)	5.75%
N#Cc1c(N)n(CCNC(=O)c2ccc(Cl)cc2)c2nc3ccccc3nc12	15.3%
Cc1nc(SC(C)C)[nH]c(=O)c1Cc1ccccc1	-11.3%
O=C(CN1CCCC1)Nc1cc(C(F)(F)F)ccc1Cl	2.22%
CCN(CC)C(=O)Cn1cnc2sc(C(=O)N3CCN(c4ccc(OC)cc4)CC3)c(C)c2c1=O	8.32%
Cc1cccc(NC(=O)Cn2nc([N+](=O)[O-])c(Br)c2C)n1	-0.775%

Structure (SMILES)	hERG current change (%, negative = inhibition) at 10uM
CC(C)n1c(NCc2cc(Cl)ccc2O)nc2ccccc21	12.6%
Cc1cc(C)n(CCC(=O)N/N=C/c2ccc(Cl)c([N+](=O)[O-])c2)n1	-36.5%
CCc1noc(C)c1C(=O)NNC(=O)COc1ccc(Br)cc1	-18.3%
CCOc1ccc(N2C(=O)CN=C2Nc2ccccc2Cl)cc1	-2.73%
O=C(Cc1cc(=O)[nH]c(=O)[nH]1)NCc1ccccc1	-4.19%
CCn1c(O)c(C=Nc2ccc(S(N)(=O)=O)cc2)c(=O)n(CC)c1=S	-23.9%
O=C1OC(c2ccc(Br)cc2)=N/C1=C\N1CC2CC(C1)c1cccc(=O)n1C2 (centres unmarked)	-45.2%
Cc1cc(=O)oc2cc3oc(=O)cc(C)c3cc12	10.1%
CCc1nnc(NC(=O)c2ccc(-c3cc(C(F)(F)F)ccc3Cl)o2)s1	2.99%
O=C(CSCc1c(Cl)cccc1Cl)NCC1CCCO1 (centres unmarked)	-5.26%
COc1ccc(CNC(=O)CN(C(=O)CCC(=O)Nc2nccs2)c2ccc(C)cc2)cc1	17%
O=c1[nH]c(-c2ccc(Cl)cc2)nc(=S)[nH]1	10.9%
CC1(C)NC(=O)N(CC(=O)OCC(=O)Nc2sccc2C#N)C1=O	1.07%
CCOc1ccc(-n2c([O-])cc(=O)[nH]c2=O)cc1.[NH4+]	7.42%
Cc1sc(N/N=C/c2cccnc2)nc1-c1ccccc1	6.85%
CCN(C(=O)COC(=O)CSc1ccc([N+](=O)[O-])cc1)C1CCS(=O)(=O)C1 (centres unmarked)	-17.5%
COc1ccc(NC(=O)CC2SC(=N)N(c3ccccc3)C2=O)c(OC)c1 (centres unmarked)	29.4%
O=C(O)C1Nc2c(C(=O)N3CCOCC3)cccc2C2C=CCC12 (centres unmarked)	10.7%
COc1ccc(C(=O)Nc2ccccn2)cc1S(=O)(=O)N1CCOCC1	-8.04%
CCc1noc(C)c1C(=O)OCC(=O)N(CC)c1c(N)n(Cc2ccccc2)c(=O)[nH]c1=O	10.9%
O=C1CCC(C(=O)N2CCCC2)CN1Cc1cccc(C(F)(F)F)c1 (centres unmarked)	6.71%
Cl.OCCNc1nc(N2CCN(Cc3ccccc3)CC2)nc2ccccc12	-68.3%
Cc1ccc(CNC(=O)CCNC(=O)N2CCn3c2nc2ccccc23)cc1	-33.2%

Structure (SMILES)	hERG current change (%, negative = inhibition) at 10uM
O=C1C(Cl)=C(N2CCOCC2)C(=O)N1c1ccccc1Cl	-9.48%
COCCNC(=O)NC(=O)COC(=O)c1cccn1C	-1.24%
CSc1ccccc1NC(=S)N/N=C/c1cccn1Cc1cccc(C)c1	11.3%
O=C1COc2ccc(C(=O)COC(=O)c3cccnc3Cl)cc2N1	17.5%
COc1ccccc1NC(=S)Nc1ccccn1	10.7%
CCC(NC(C)C)C(O)c1ccc(O)c2[nH]c(=O)ccc12.Cl (centres unmarked)	7.97%
CCOC(=O)C1=C2N(C)c3ccccc3N2CCC1=O	1.52%
O=C(COc1ccccc1F)N1CCN(CCN2C(=O)c3cccc4cccc(c34)C2=O)CC1	-28.5%
CC(OC(=O)CNC(=O)c1ccc(F)cc1)C(=O)Nc1ccc(S(=O)(=O)N2CCOCC2)cc1 (centres unmarked)	-11.2%
CCOC(=O)CSc1nc2c(sc(=S)n2-c2ccccc2)c(=O)n1-c1ccc(OC)cc1OC	23.4%
N#C/C(=C\c1cccs1)C(=O)NCc1ccccc1	7.73%
O=P(COCCCCCOCP(=O)(c1ccccc1)c1ccccc1)(c1ccccc1)c1ccccc1	-36.9%
C=CCn1cc(C(=O)OCC)c(=O)c2cc(F)c(F)cc21	13.9%
Nc1ncnc2c1ncn2[C@H]1C[C@H](O)[C@@H](CO)O1.O	22.8%
CCN(CC(=O)Nc1cc(OC)ccc1OC)Cc1nc2ccccc2c(=O)[nH]1	-8.33%
O=C(CCC(=O)N1CCOc2ccccc21)NC1CCN(Cc2ccccc2)CC1	-51%
COc1ccccc1/C=N/NC(=O)CC(=O)NCc1ccccc1	-2.25%
C=CCOc1c(CNc2ccc(C(=O)O)cc2)cccc1OC	16%
NC(=O)c1ccc(NC(=O)COC(=O)c2ccc([N+](=O)[O-])cc2)cc1	-9.46%
O=[N+]([O-])c1ccc(CSc2nnc(-c3cccnc3)o2)cc1	-11.5%
CC(Cc1ccccc1)C(=O)N[C@@H](CO)Cc1ccccc1 (some centres unmarked)	13.5%
COc1ccc(C2CC(c3cccc(C)c3)n3ncnc3N2)cc1 (centres unmarked)	-24.8%
O=C(NNc1c(Cl)cccc1Cl)C1CCC1	22.6%

Structure (SMILES)	hERG current change (%, negative = inhibition) at 10uM
O=C1OCCC1Sc1nc2ccccc2n1-c1ccccc1 (centres unmarked)	-16.6%
Cc1cccc(C)c1NC(=O)CN(C)C(=O)CSC(=S)N1CCCC1	24.6%
CN(Cc1ccccc1)C(=O)CCNC(=O)Cn1cnc2ccccc2c1=O	-5.76%
Cc1cc(C)nc(SCc2cc(=O)c(OC(=O)c3cccc([N+](=O)[O-])c3)co2)n1	-32.5%
O=C(COc1ccc([N+](=O)[O-])cc1)Nc1ccncc1	-36.7%
Cc1ccnc(NC(=O)C2CCN(S(=O)(=O)c3ccc(C)c(C)c3)CC2)c1	4.97%
CN1CCN(NC(=O)c2cn(-c3ccccc3)nc2-c2cccs2)CC1.Cl	-4.71%
O=C(c1cc(C2CC2)on1)N1CCCC(N2CCN(c3ccc(F)cc3)CC2)C1 (centres unmarked)	-63.7%
COCCOC(=O)C1=C(C)Nc2nc(C)nn2C1c1ccc(F)cc1 (centres unmarked)	-4.76%
CCc1ccc(/C=N/Nc2ncnc3nc[nH]c23)cc1	-14.7%
CCOC(=O)Cn1c(=O)oc2cc(S(=O)(=O)N3CCN(C(=O)OCC)CC3)ccc21	13%
COc1cc(OC)c(NC(=S)NCc2ccccc2)cc1Cl	13.6%
Cc1cnc(NC(=O)c2cc3c(s2)CCCC3)s1	6.32%
CC(C)c1ccccc1OCCCCCNCCO	-14.6%
Cc1sc2ncn(CC(=O)N3CCCC(C)C3)c(=O)c2c1S(=O)(=O)N1CCCCC1 (centres unmarked)	-14.2%
O=C(CCC1CCCCC1)NCCN1C2=NC[C@H](Cc3ccc(O)cc3)N2C[C@H]1Cc1ccc(O)cc1	-4.37%
Cc1sc2ncnc(SCC(=O)N3c4ccccc4Sc4ccc(Cl)cc43)c2c1C	5.91%
CCOC(=O)Cn1nnc(-c2ccc(SC)cc2)n1	16.9%
C=CCNC(=S)NCc1cccnc1	3.53%
COc1ccc(CCNC(=O)CCC(=O)Nc2ccc3nc(N4CCN(C)CC4)cc(C)c3c2)cc1OC	22.2%
